Source: article PMC5892938
Some of the results follow. At the low end of the ranking the order means little.

Target: GST-SBP-SLBP (stem-loop binding protein) (UniProt Q14493)
Assay: targeted RNA Bind-n-Seq;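 also: DESeq read counts versus GST-SBP nonspecific binding control pulldown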
Details: RBNS binding buffer: 25 mM Tris pH 7.5, 150 mM KCl, 3 mM MgCl2, 0.1% Tween, 0.5 mg/mL BSA, 1 mM DTT; 27 nM protein, 750 pM RNA pool; temperature not stated; high values mean tight binding

Row | Sequence | binding signal (log2 fold change)
1 | GGUCACGUCUCAAUCAACUCAUCCUCCAGGGAAACCCCUGGCUUUCUCAACAGCUCGCAGUCAAG | 0.066
2 | GGUCACGUCUCAAUCAACUCCAAAGAGGGGGGGAAAACCCCUUUGCCCUCACUAUCAACAGCUCGCAGUCAAG | 0.207
3 | GGUCACGUCUCAAUCAACUCUACUCCCAGGGAAAACCCUGGCAAUGUCAACAGCUCGCAGUCAAG | -0.02
4 | GGUCACGUCUCAAUCAACUCUUCUUCAGGAGUUUGCUCCUGCAAUUUCAACAGCUCGCAGUCAAG | -0.0296
5 | GGUCACGUCUCAAUCAACUCUAUUCCAGGAGUUUCCUCCUGCAAAUUCAACAGCUCGCAGUCAAG | 0.037
6 | GGUCACGUCUCAAUCAACUCUUCGUCAGGAGUUUUCUCCUGUUUAUUCAACAGCUCGCAGUCAAG | 0.0771
7 | GGUCACGUCUCAAUCAACUCACAAGAGGGGGGGAAAACCCCUUUACCCUCCAUCUCAACAGCUCGCAGUCAAG | 0.134
8 | GGUCACGUCUCAAUCAACUCUUCUCCAGGAGUUUUCUCCUGCUUUCUCAACAGCUCGCAGUCAAG | -0.0678
9 | GGUCACGUCUCAAUCAACUCAAAAGAGGGGGGGAAAACCCCUUUACCCUCCAUCUCAACAGCUCGCAGUCAAG | 0.156
10 | GGUCACGUCUCAAUCAACUCUUUCUCCAGGGAAACCCCUGGCAAUUUCAACAGCUCGCAGUCAAG | -0.122
11 | GGUCACGUCUCAAUCAACUCACAAGAGGGGGGGAAAACCCCUUUACCCUCAACUUCAACAGCUCGCAGUCAAG | -0.384
12 | GGUCACGUCUCAAUCAACUCUACUUCCAGGGAAACCCCUGGUUAUCUCAACAGCUCGCAGUCAAG | -0.332
13 | GGUCACGUCUCAAUCAACUCAACGCCAGGAGUUUUCUCCUGUUUUUUCAACAGCUCGCAGUCAAG | -0.0716
14 | GGUCACGUCUCAAUCAACUCUUCCUCCAGGGAAAUCCCUGGCAAUUUCAACAGCUCGCAGUCAAG | -0.31
15 | GGUCACGUCUCAAUCAACUCAUUCUCAGGAGUUUGCUCCUGCUAAUUCAACAGCUCGCAGUCAAG | 0.0828
16 | GGUCACGUCUCAAUCAACUCUUUUCCCAGGGAAAUCCCUGGUUAUGUCAACAGCUCGCAGUCAAG | -0.00159
17 | GGUCACGUCUCAAUCAACUCAUUUCCCAGGGAAACCCCUGGUUUACUCAACAGCUCGCAGUCAAG | -0.108
18 | GGUCACGUCUCAAUCAACUCACUCGAGGGGGGGAAAACCCCUUUACCCUCAAACUCAACAGCUCGCAGUCAAG | -0.435
19 | GGUCACGUCUCAAUCAACUCUUUUUCAGGAGUUUCCUCCUGCAAUCUCAACAGCUCGCAGUCAAG | 0.0978
20 | GGUCACGUCUCAAUCAACUCAUCCUCCAGGGAAAUCCCUGGUUUUCUCAACAGCUCGCAGUCAAG | 0.027
21 | GGUCACGUCUCAAUCAACUCUUUUCCAGGAGUUUUCUCCUGUAAUGUCAACAGCUCGCAGUCAAG | 0.0317
22 | GGUCACGUCUCAAUCAACUCCUAGGAGGGGGGGAAAACCCCUUUACCCUCAUCUUCAACAGCUCGCAGUCAAG | -0.237
23 | GGUCACGUCUCAAUCAACUCAUCUCCCAGGGAAACCCCUGGCUUUCUCAACAGCUCGCAGUCAAG | 0.067
24 | GGUCACGUCUCAAUCAACUCAACUCCAGGAGUUUACUCCUGCAUUCUCAACAGCUCGCAGUCAAG | 0.0676

Row | Sequence | binding signal (log2 fold change)
25 | GGUCACGUCUCAAUCAACUCUUCUCCCAGGGAAACCCCUGGCUUUUUCAACAGCUCGCAGUCAAG | -0.194
26 | GGUCACGUCUCAAUCAACUCUUUUCCCAGGGAAACCCCUGGCUUACUCAACAGCUCGCAGUCAAG | -0.108
27 | GGUCACGUCUCAAUCAACUCUAUAGAGGGGGGGAAAACCCCUUUACCCUCAUCCUCAACAGCUCGCAGUCAAG | -0.359
28 | GGUCACGUCUCAAUCAACUCUUCUCCCAGGGAAAUCCCUGGUUAAUUCAACAGCUCGCAGUCAAG | -0.37
29 | GGUCACGUCUCAAUCAACUCAUUCUCAGGAGUUUUCUCCUGUUAUCUCAACAGCUCGCAGUCAAG | -0.0878
30 | GGUCACGUCUCAAUCAACUCAAUUCCCAGGGAAAACCCUGGCUUACUCAACAGCUCGCAGUCAAG | -0.245
31 | GGUCACGUCUCAAUCAACUCAUCCUCCAGGGAAAGCCCUGGCAAAUUCAACAGCUCGCAGUCAAG | -0.25
32 | GGUCACGUCUCAAUCAACUCCAUAGAGGGGGGGAAAACCCCUUUGCCCUCGUAAUCAACAGCUCGCAGUCAAG | -0.407
33 | GGUCACGUCUCAAUCAACUCAACUUCAGGAGUUUCCUCCUGUUAUCUCAACAGCUCGCAGUCAAG | 0.0369
34 | GGUCACGUCUCAAUCAACUCAUCCCCCAGGGAAACCCCUGGCAUUUUCAACAGCUCGCAGUCAAG | -0.0369
35 | GGUCACGUCUCAAUCAACUCAUCUCCAGGAGUUUGCUCCUGCAUUCUCAACAGCUCGCAGUCAAG | 0.188
36 | GGUCACGUCUCAAUCAACUCCUCAGAGGGGGGGAAAACCCCUUUACCCUCACUCUCAACAGCUCGCAGUCAAG | -0.0768
37 | GGUCACGUCUCAAUCAACUCAUCCCCAGGAGUUUUCUCCUGCAUACUCAACAGCUCGCAGUCAAG | 0.212
38 | GGUCACGUCUCAAUCAACUCUUCCCCAGGAGUUUUCUCCUGCUAACUCAACAGCUCGCAGUCAAG | -0.00891
39 | GGUCACGUCUCAAUCAACUCAAUCUCAGGAGUUUCCUCCUGCAAUUUCAACAGCUCGCAGUCAAG | 0.0636
40 | GGUCACGUCUCAAUCAACUCUUCGUCAGGAGUUUCCUCCUGUUUUUUCAACAGCUCGCAGUCAAG | 0.137
41 | GGUCACGUCUCAAUCAACUCAUAAGAGGGGGGGAAAACCCCUUUACCCUCCGAAUCAACAGCUCGCAGUCAAG | 0.123
42 | GGUCACGUCUCAAUCAACUCAUCCUCAGGAGUUUUCUCCUGUUAUUUCAACAGCUCGCAGUCAAG | -0.129
43 | GGUCACGUCUCAAUCAACUCAUUCUCAGGAGUUUCCUCCUGCAAAGUCAACAGCUCGCAGUCAAG | 0.0992
44 | GGUCACGUCUCAAUCAACUCCGCAGAGGGGGGGAAAACCCCUUUACCCUCACAUUCAACAGCUCGCAGUCAAG | -0.026
45 | GGUCACGUCUCAAUCAACUCUUUUUCCAGGGAAAUCCCUGGUAUGUUCAACAGCUCGCAGUCAAG | 0.0406
46 | GGUCACGUCUCAAUCAACUCAUCUUCAGGAGUUUCCUCCUGCUAUGUCAACAGCUCGCAGUCAAG | 0.188
47 | GGUCACGUCUCAAUCAACUCAUCUUCAGGAGUUUACUCCUGUAAUUUCAACAGCUCGCAGUCAAG | -0.0624
